From article PMC4336329 (PLoS ONE, 2015)
About 2,200 (0.71%) of roughly 310,000 compounds showed an effect of 50% or more. The effect is printed as a negative number. Some of the results follow.

Biological target: human ether-à-go-go-related gene (hERG) potassium channel (human, UniProt Q12809)
Experiment: primary screen, population patch clamp on CHO cells stably expressing hERG

Chain of human ether-à-go-go-related gene (hERG) potassium channel (Q12809 whole entry, looked up): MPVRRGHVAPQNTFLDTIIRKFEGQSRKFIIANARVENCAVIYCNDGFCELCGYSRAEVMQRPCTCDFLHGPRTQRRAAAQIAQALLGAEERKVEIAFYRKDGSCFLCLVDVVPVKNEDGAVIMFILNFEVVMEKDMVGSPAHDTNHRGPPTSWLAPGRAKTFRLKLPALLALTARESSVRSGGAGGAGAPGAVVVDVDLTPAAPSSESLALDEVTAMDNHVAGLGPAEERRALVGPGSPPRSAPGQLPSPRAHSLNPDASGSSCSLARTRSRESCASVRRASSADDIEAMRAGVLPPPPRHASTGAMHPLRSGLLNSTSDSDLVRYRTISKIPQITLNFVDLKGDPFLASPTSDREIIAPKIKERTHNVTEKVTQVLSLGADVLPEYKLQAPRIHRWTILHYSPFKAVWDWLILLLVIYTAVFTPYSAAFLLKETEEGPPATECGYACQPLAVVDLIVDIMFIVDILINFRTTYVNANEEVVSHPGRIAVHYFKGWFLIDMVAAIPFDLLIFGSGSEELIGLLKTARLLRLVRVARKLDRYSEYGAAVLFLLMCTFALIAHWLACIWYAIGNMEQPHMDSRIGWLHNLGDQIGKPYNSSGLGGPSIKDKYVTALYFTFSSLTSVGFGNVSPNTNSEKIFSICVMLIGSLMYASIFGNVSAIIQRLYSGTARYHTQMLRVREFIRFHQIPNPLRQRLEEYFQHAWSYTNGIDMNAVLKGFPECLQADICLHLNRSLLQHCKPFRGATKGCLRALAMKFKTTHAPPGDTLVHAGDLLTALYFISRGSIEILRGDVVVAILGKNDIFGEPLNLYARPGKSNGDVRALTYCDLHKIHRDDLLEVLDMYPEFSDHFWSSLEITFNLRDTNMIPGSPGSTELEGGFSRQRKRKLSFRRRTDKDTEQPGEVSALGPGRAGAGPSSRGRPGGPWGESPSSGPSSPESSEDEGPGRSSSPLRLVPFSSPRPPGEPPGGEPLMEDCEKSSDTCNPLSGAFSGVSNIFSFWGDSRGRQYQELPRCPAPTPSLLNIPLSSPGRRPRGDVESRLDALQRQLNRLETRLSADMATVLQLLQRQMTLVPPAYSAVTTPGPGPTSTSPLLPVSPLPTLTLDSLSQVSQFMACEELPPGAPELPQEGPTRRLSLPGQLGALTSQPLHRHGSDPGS

SMILES | hERG current change (%, negative = inhibition) at 1uM [%]
O=S(=O)(NCc1ccccn1)c1ccccn1 | 3.23
C/C(=N\Nc1cccc([N+](=O)[O-])c1)c1ccccc1O | 6.66
CCOc1ccccc1NC(=O)c1ccc(S(=O)(=O)N(C)c2ccccc2)cc1 | 6.05
O=C(NCCCn1ccnc1)/C(=C/c1cccnc1)NC(=O)c1ccco1 | 7.85
S=c1[nH]nc(-c2cc(-c3ccco3)[nH]n2)n1-c1ccccc1 | 3.15
CCOC(=O)c1cc(-c2ccccc2)n(CC(=O)NC(C)(C)C)c1C | 7.97
CC(C)(C)C(=O)NC(=C(Cl)Cl)P(=O)(O)O | 13.2
CC(C)C1(C)C(=O)N=C2c3ccccc3C(=O)N21 (stereo not drawn) | 12.8
CCC1Oc2ccc(C)cc2N(CC(=O)N(Cc2ccc3c(c2)OCO3)CC2CCCO2)C1=O (stereo not drawn) | -2.42
COc1ccc(S(=O)(=O)N2CCOC2CNC(=O)C(=O)NCc2cccnc2)cc1OC (stereo not drawn) | 4.87
CC(=O)c1ccc(N2CCN(C(=O)CCCn3c(=O)[nH]c4ccc(Br)cc4c3=O)CC2)cc1 | 1.18
O=C(NCC(c1ccco1)N1CCOCC1)c1ccccc1 (stereo not drawn) | 19.5
CC1CCCCC1NC(=O)Cn1nnc(-c2ccc(Cl)cc2)n1 (stereo not drawn) | 5.44
COc1ccc(NC(=O)CNC(=O)c2ccco2)cc1 | 10.1
COc1ccc(/C=N/NC(=O)c2nn(C)cc2Br)cc1CSCc1ccco1 | -14.4
CCc1cc(=O)[nH]c(SCC(=O)N2CCCC2)n1 | 6.42
Cc1nc(COc2cccc(Cl)c2)sc1C(=O)/C=C/N(C)C | 2.94
Cc1ccc(C)c(NC(=O)Cn2nnc(C(=O)NCc3ccco3)c2N)c1 | 3.02
CCN(C(=O)c1cc2c(=O)n3ccccc3nc2n1CCCOC)C1CCCCC1 | 2.38
Cc1ccc(Sc2nc(C)c([N+](=O)[O-])c(C)c2C#N)cc1 | 13
O=C1C2ON(c3ccccc3)C(c3ccccn3)C2C(=O)N1c1ccc(Br)cc1 (stereo not drawn) | 6.82
CCNc1nc(NCC)nc(N(n2cnnc2)S(=O)(=O)c2ccc(C)cc2)n1 | -2.64
COc1cc(O)c(C(CCN2CCCC2)c2cc(OC)c(OC)c(OC)c2)c(OC)c1 (stereo not drawn) | 11.6

SMILES | hERG current change (%, negative = inhibition) at 1uM [%]
CN(CC(=O)Nc1ccccc1C(F)(F)F)C(=O)C1=COCCO1 | 12.4
CC1CC(Nc2cccc(O)c2)=CC(=O)O1 (stereo not drawn) | 3.57
O=C(C1CC1)N1CCc2cc(Br)cc(S(=O)(=O)NCCCN3CCCCC3)c21 | 6.97
CSc1ccccc1NC(=O)c1cccs1 | 3.13
NC(=O)C1CCN(C(=O)CSCc2ccccc2Cl)CC1 | 9.01
Cc1ccc(-n2c(C)nnc2SCC(=O)NNC(=O)c2ccco2)cc1 | 15.2
O=C(N/C(=C/c1cccc([N+](=O)[O-])c1)C(=O)N1CCCCC1)c1ccco1 | -3.64
Cc1ccc(NC(=O)CSc2nc3[nH]ncc3c(=O)[nH]2)c(C)c1 | 9.49
COc1ccc(CN2CC(C(=O)NCCC3=CCCCC3)CC2=O)cc1 (stereo not drawn) | 7.38
CC(C)(C#N)C(C)(C)c1nn[nH]n1 | -3
CCNC(=S)NCCN1CCOCC1 | 13.4
COCCn1c(N)c(C(=O)NS(=O)(=O)c2ccc(C)cc2)c(=O)[nH]c1=O | 10.8
O=C(CCn1c(=O)oc2ccccc21)NCCCN1CCOCC1 | 15.2
OCCCn1c(CCNc2nc(-c3ccc(F)cc3)cs2)nc2cc(C(F)(F)F)ccc21 | -0.5
COc1ccccc1N1CCN(Cc2ccc(-c3ccccc3[N+](=O)[O-])o2)CC1 | -0.996
O=C(Cc1cccc2ccccc12)NNC(=O)c1cccs1 | 8.9
O=C1CCN(CCc2ccccc2)CCN1[C@H](CSc1ccc(Br)cc1)Cc1ccccc1 | -25.8
Cc1cc(C(=O)OCC(=O)N2C(C)CCCC2C)c(C)o1 (stereo not drawn) | 9.75
Cc1nc2c(C(=O)N3CCOCC3)cnn2c(C)c1Cc1cccc(Cl)c1 | -7.36
Cc1csc(NC(=O)C2CCCN(S(=O)(=O)c3cccnc3)C2)n1 (stereo not drawn) | 0.335
N#C/C(=C\Nc1ccc(F)c(Cl)c1)C(=O)C1CC1 | 12.4
O=C(Nc1ccc(Cl)cc1C(=O)c1ccccc1Cl)c1ccco1 | 9.76
